Data: PubChem BioAssay AID504832 (National Center for Advancing Translational Sciences (NCATS), 2011)
About 18,000 (5.8%) of roughly 310,000 compounds were called active. This list was built around the results that the source calls inconclusive (neither active nor inactive); the mix of calls is not that of the screen. The call rests on the fitted dose curve; in most records, active means well fitted inhibition curve with a large enough effect; inconclusive means small, poorly fitted or top-dose-only effect, or another doubt; inactive means no such curve, though single readings can be large or run the other way. No potency is given beside an inconclusive call; the fits are too rough.

assay: Primary qHTS for delayed death inhibitors of the malarial parasite plastid, 48 hour incubation; details: P. falciparum luciferase growth in erythrocytes; series mostly up to 28.7 µM
Procedure, shortened: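 Read-out is firefly luciferase luminescence from an integrated reporter in P. falciparum, so falling signal marks reduced parasite growth. Infected erythrocytes were at 2% hematocrit and 0.1% parasitemia (final) in Albumax-supplemented RPMI 1640.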
Potency means the concentration at half of the fitted maximal effect; tags describe the fitted curve by direction and shape.

SMILES	Potency
O=C(NCCN1CCOCC1)c1ccccc1N1C(=O)[C@@H]2Cc3c([nH]c4ccccc34)C(c3ccccc3)N2C1=O (stereo not given in full)	inconclusive [inhibitor, partial curve, poor fit]
COc1ccc(C2/C=C\CN(C(=O)Nc3ccc(C(F)(F)F)cc3)CC(=O)N2Cc2ccc(F)cc2)cc1 (stereo not given)	inconclusive [inhibitor, single point]
Cc1ccc(-c2cc(-c3ccccc3)cc(-c3ccccc3)[n+]2-c2ccccc2C(=O)O)cc1	active: 10.4 µM
CCC(=O)c1ccc2ncccc2c1	inactive
CCOc1c2ccc(C(=O)NC3CCCc4ccccc43)cc2nn1CC (stereo not given)	inconclusive [inhibitor, single point]
Cc1ccc(-n2nc3ccc(NC(=O)c4cccc([N+](=O)[O-])c4C)cc3n2)cc1	inactive
CCOc1ccc(CCNC(=O)CSc2cc(=O)n(CC)c3ccccc23)cc1OCC	inconclusive [inhibitor, single point]
Cn1c(CN2CCCC(C(=O)c3ccc4c(c3)OCO4)C2)nc2ccccc21 (stereo not given)	inconclusive [inhibitor, partial curve, poor fit]
CCC(C)NC(=O)c1c(N)n(/N=C/c2cccnc2)c2nc3ccccc3nc12 (stereo not given)	inconclusive [inhibitor, single point]
CCOC(=O)C1(O)CC(C)=NN1C(=O)c1cccc(Br)c1 (stereo not given)	inconclusive [inhibitor, partial curve, poor fit]
COc1cccc(-c2cc(C(F)(F)F)nc(N3CCOCC3)n2)c1	inactive
Cc1onc(-c2ccccc2Cl)c1C(=O)Nc1ccc(F)c(F)c1	inconclusive [inhibitor, partial curve, poor fit]
CCCCn1c(SCC(=O)Nc2ccc(C)c(S(=O)(=O)N3CCOCC3)c2)nnc1C(CC)N(C)C (stereo not given)	inconclusive [inhibitor, single point]
CCOC(=O)CC(=O)CSc1nc(-c2ccccc2)cc(-c2ccc(Cl)cc2)c1C#N	inconclusive [inhibitor, single point]
CCN(Cc1cnn(C)c1)C(=O)c1ccc(OC2CCN(S(=O)(=O)N(C)C)CC2)cc1	inactive
O=C(CSc1ccc(Cl)cc1)Nc1cccc(-c2nc3ncccc3o2)c1	inconclusive [inhibitor, single point]
COc1cccc(CCC(=O)Nc2cccc(S(=O)(=O)N3CCCC3)c2)c1OC	active: 9.28 µM
Cc1ccc(C2=NN(C(=O)CN3CCN(C4CCS(=O)(=O)C4)CC3)C(c3ccco3)C2)cc1 (stereo not given)	inactive
CCC(=O)c1ccc(OCC(=O)Nc2cc(S(=O)(=O)N3CCCCC3)ccc2N2CCN(CC)CC2)cc1	inconclusive [inhibitor, single point]
COc1cccc(CNC(=O)[C@H](CCSC)NC(=O)N2CCn3c2nc2ccccc23)c1	inconclusive [inhibitor, single point]
Cc1cc(Cl)c(S(=O)(=O)NC2CCCCC2)cc1OCC(=O)Nc1nncs1	inconclusive [inhibitor, single point]
CCN(CC)CCNC(=O)Cc1nn(CC)c(=O)c2ccccc12	inactive
COc1ccc(N2CCN(C(=O)C(=O)c3cn(CC(=O)N4CCOCC4)c4ccccc34)CC2)cc1	inactive
COc1ccc(N(Cc2ccccc2)S(=O)(=O)c2cccc(C(=O)Nc3ccccn3)c2)cc1	inconclusive [inhibitor, single point]

SMILES	Potency
Clc1ccc(Cn2ncc3c(NCc4ccccc4)ncnc32)cc1	inconclusive [inhibitor, partial curve]
Cc1nc2ccccc2n1CC(=O)N1CC(=O)Nc2ccccc21	inactive
CC(C)Oc1ccc(Br)cc1C(=O)N/N=C/c1c[nH]c2ccccc12	inconclusive [inhibitor, single point]
O=C(NC(=S)Nc1ccc(S(=O)(=O)N2CCCC2)cc1)c1cccs1	inactive
CCN(c1ccccc1)S(=O)(=O)c1cc(C(=O)Nc2cccc(Cl)c2)ccc1F	inconclusive [inhibitor, single point]
CN(C)c1ccc(-c2nnc(-c3cccs3)o2)cc1	inactive
CN(C)C(=O)Oc1ccc(Cl)c2cccnc12	inactive
CCc1ccc2[nH]c(=O)c(C(c3nnnn3CC3CCCO3)N3CCCc4ccccc43)cc2c1 (stereo not given)	active: 11.7 µM
Cc1ccc2c(CSc3nc4ccccc4c(=O)n3CCCO)cc(=O)oc2c1C	inconclusive [inhibitor, single point]
Cc1ccccc1OCCn1cnc2c(N)ncnc21	inactive
Cc1cccc(NC(=O)C(CC(C)C)NC(=O)C2CCC(C)CC2)n1 (stereo not given)	inactive
Cc1cc(C)c(NS(=O)(=O)c2ccc3c(c2)NC(=O)CCS3)c(C)c1	active: 11.7 µM
O=C(OC1CCN(CCCl)CC1)C(c1ccccc1)c1ccccc1	inconclusive [inhibitor, single point]
COc1ccc(CCNC(=O)COc2ccc(N(C)S(=O)(=O)c3ccc(Cl)cc3)cc2)cc1	inconclusive [inhibitor, single point]
COc1ccc(N2CCN(CCCNC(=O)C3CCC(CNc4nc(=S)[nH]c5ccccc45)CC3)CC2)cc1 (stereo not given)	inconclusive [inhibitor, partial curve, poor fit]
CC(C)N(C(=O)CSc1nn2c(=O)c(C(C)(C)C)nnc2s1)c1ccccc1	inconclusive [inhibitor, single point]
CC(C)N(C(=O)Cn1cc(S(=O)(=O)CC(=O)Nc2ccccc2)c2ccccc21)C(C)C	inconclusive [inhibitor, partial curve]
CC1Cc2ccccc2N1S(=O)(=O)c1cccc(C(=O)NNC(=O)c2ccccc2F)c1 (stereo not given)	inactive
Cc1ccccc1C(=O)Nc1cc(C(F)(F)F)ccc1-n1cncn1	inconclusive [inhibitor, single point]
C=C(C)CN=C1SC(C(=O)Nc2sc3c(c2C(=O)OC)CCC3)C(N)=C1C(N)=O (stereo not given)	inconclusive [inhibitor, single point]
COCCNC(=O)c1ccc(CN2CCC(Cc3ccccc3)CC2)cc1	inactive
BrC(=C\c1ccccc1)/C=N/n1cnnc1	active: 10.4 µM
Cc1ccnc2c1ccc1cccnc12	active: 1.17 µM
CSc1nc(C(C)C)ccc1CNC(=O)CC(C)c1ccccc1 (stereo not given)	inconclusive [inhibitor, partial curve]

SMILES	Potency
CCCCN(CCCNC(=O)c1c(C)cc(=O)oc1C)c1ccccc1	inconclusive [inhibitor, single point]
O=C(N/N=C/C=C/c1ccccc1)C1CC1c1ccccc1 (stereo not given)	inactive
CCc1cc2c(=O)c(-c3ccc4c(c3)OCCO4)coc2cc1OS(C)(=O)=O	inactive
Cc1ccc(N(C(=O)C(F)(F)F)C(C(=O)NC2CCCCC2)c2cccs2)cc1 (stereo not given)	inconclusive [inhibitor, partial curve, poor fit]
O=C(Nc1ccccc1-c1nnn(CC(=O)N2CCN(c3ccccc3)CC2)n1)c1cccs1	inconclusive [inhibitor, partial curve, poor fit]
COc1cc(C(=O)NCc2nnc(SCC(=O)N3CCCC3)o2)cc(OC)c1OC	inactive
CC(C)C(c1nnnn1Cc1ccccc1)N1CCN(Cc2ccc3c(c2)OCO3)CC1 (stereo not given)	inconclusive [inhibitor, partial curve]
Cc1[nH]c(=O)cc2ccccc12	inconclusive [inhibitor, single point]
N#Cc1nc(-c2ccc(OCc3ccc(Cl)cc3)cc2)oc1NCCCn1ccnc1	active: 2.33 µM
C=CCn1c(=NC(=O)C2COc3ccccc3O2)sc2cccc(OC)c21 (stereo not given)	active: 7.38 µM
CCC1CCCCN1CCCNC(=O)Cn1ncc2c(C)n(Cc3ccccc3Cl)c(C)c2c1=O (stereo not given)	inconclusive [inhibitor, partial curve, poor fit]
Cc1cccc2nc(-c3ccco3)c(Nc3ccccc3)n12	inactive
CCC(Oc1ccccc1)C(=O)OCC(=O)Nc1sccc1C(N)=O (stereo not given)	inactive
CN(C)c1ccc(C(=O)Nc2ccc(O)c3c(=O)cc(-c4ccccc4Cl)oc23)cc1	inconclusive [inhibitor, partial curve]
Cc1nc(COC(=O)c2c(C)nn(-c3ccccc3)c2C)cs1	inactive
CCOCCCN(C)C1CCN(C(=O)c2oc3ccccc3c2NC(=O)Cc2ccc(F)cc2)CC1	inconclusive [inhibitor, single point]
COc1ccc(-n2sc3c(c2=S)-c2cc(OC)ccc2NC3(C)C)cc1	inconclusive [inhibitor, partial curve]
Cc1ccc(Nc2c(-c3ccc(N4CCOCC4)cc3)nc3ncccn23)c(C)c1	inconclusive [inhibitor, single point]
COCCNC(=O)CCSc1nc(-c2ccc(OC)cc2)cc(C(F)(F)F)n1	inconclusive [inhibitor, single point]
Cc1cc(OC(=O)c2ccc(F)cc2)c([N+](=O)[O-])c(=O)[nH]1	inactive
CCOc1ccc2nc(NC(=O)CN3CCOCC3)sc2c1	active: 4.15 µM
CC(=O)N1CCN(C(=O)COC(=O)c2oc3ccccc3c2C)CC1	inactive
